Measured values taken from ChEMBL document CHEMBL4888484, “Replenishing the malaria drug discovery pipeline: Screening and hit evaluation of the MMV Hit Generation Library 1 (HGL1) against asexual blood stage Plasmodium falciparum ,using a nano luciferase reporter read-out” (2022).
Screen size: about 150,000 compounds; about 540 (0.36%) showed an effect of 50% or more. This is one part of the list.

The compounds below were run on Plasmodium falciparum (assay: Primary screen in NF54 nanoGlo assay, in single point, at 2uM, 72h; a lower Z score goes with more inhibition). Conditions: timepoint 72 hour.
Type: functional, Erythrocyte

Row | Compound | % Inhibition [%] | Z score
1 | O[C@H](c1nc(C2CC2)n[nH]1)C(F)(F)F | -4 | 0.65
2 | Cc1cc(C)n(CCCN(C)CCC(C)(C)O)n1 | -1 | 0.22
3 | CN(CCn1cccn1)Cc1ccc(C(=O)O)s1 | 8 | -0.94
4 | Cc1ccc2[nH]cc(-c3nc(C)cc(C(=O)O)n3)c2c1 | -12 | 1.29
5 | Cc1cccc(C2(C(=O)NCCn3ncnn3)CCCCC2)c1 | -6 | 0.95
6 | CCN(CC)c1nc2c(c(=O)n(C)c(=O)n2C)n1CC(=O)c1ccc(OC)c(OC)c1 | -6 | 0.85
7 | CC1CCCC(NC(=O)c2cnn3c4c(cnc23)CCCCCC4)C1C (stereo not drawn) | -11 | 1.63
8 | COC1CCC(N(C)C(=O)C2CCC3CCCCC3C2)CC1 (stereo not drawn) | -2 | 0.38
9 | COC(=O)CCn1cc(-c2cc(C3CCCC3)nc(N)c2C#N)cn1 | -3 | 0.33
10 | CCn1nc(C)c([C@H](C)Nc2ccc(C)nn2)c1C | -16 | 2.43
11 | Cc1noc(CCNC(=O)N(C)C2CC2)n1 | 18 | -2.25
12 | CCOC(=O)c1c(C)[nH]c(C(=O)N2CC(N(C)C)C2)c1C | -14 | 1.38
13 | Cc1nc2ccc(CNC(=O)[C@@H](c3ccc4c(c3)OCO4)N(C)C)cc2[nH]1 | -2 | 0.43
14 | CC(Oc1ccccc1)C(=O)Nc1nc2n(n1)C(c1ccc(Cl)cc1)CC(=O)N2 (stereo not drawn) | -1 | 0.19
15 | COc1cccc(CC[C@H]2CCCNC2)c1 | 0 | 0.06
16 | Cc1cc(C)n(-c2ccc(-c3nnc(-c4cc5cc(Oc6ccccc6)ccc5[nH]4)s3)cc2)n1 | 40 | -4.55
17 | O[C@H](c1cccnc1)c1nccn1Cc1c(F)cccc1F | 2 | -0.34
18 | Cc1nnccc1NC(=O)N(C)[C@H]1CCCC[C@H]1C(F)(F)F | -6 | 0.9
19 | COC(=O)c1cc(NC(=O)c2cccc(C(F)(F)F)c2)c[nH]1 | -4 | 0.63
20 | COc1ccc(F)c(F)c1CN1CCC([C@H](C)N2CCN(C)CC2)CC1 | 3 | -0.38
21 | O=C1COc2cc(C(=O)N3CC[C@H](Nc4ncccn4)[C@@H](O)C3)ccc2N1 | 10 | -1.32

Row | Compound | % Inhibition [%] | Z score
22 | C=C(C)COc1ccc(NC(=O)N2CCCN3CCC[C@H]3C2)cc1 | -10 | 2.05
23 | O=C(CN1C(=O)c2ccccc2C1=O)N[C@H](c1ccccc1)C1CC1 | 6 | -0.56
24 | CC(=O)N[C@@H](C)Cc1nc(-c2ccc(F)c(F)c2)nn1CCO | 0 | -0.03
25 | CCn1cc(-c2n[nH]cc2C(=O)NCCS(=O)(=O)N(C)C)cn1 | -5 | 0.65
26 | Cn1cc(-c2nc(C(=O)N3CCN(c4ccccc4)CC3)cs2)c2cccnc21 | -17 | 2.85
27 | O=C(C#Cc1ccccc1)N1CCC[C@H](CCC(=O)N2CCOCC2)C1 | -14 | 2.15
28 | COc1cccc(CNC2(Cc3cc(CN4CCN(c5ccccc5)CC4)on3)COC2)c1 | 13 | -1.53
29 | C=C(C)CN(C)c1ccc(C(=O)NCC[C@H]2CCCCN2C)cn1 | -7 | 0.98
30 | O[C@@H](Cn1ccnc1-c1cccnc1)c1cccc(Cl)c1 | -19 | 1.68
31 | Cc1ccc(C)c(S(=O)(=O)NCCNC(=O)c2n[nH]c(C)c2C)c1 | 7 | -0.91
32 | CC(C)N1C[C@@H](NCc2cccc(O)c2)C[C@H]1C(=O)N1CCN(c2cccc(C(F)(F)F)c2)CC1 | -5 | 0.54
33 | COc1cc(CNCCCN2CCOCC2)ccc1OCc1ccc(Cl)cc1 | 50 | -4.4
34 | CC(C)(C)n1ncnc1NC(=O)c1cc(Cl)cc(Cl)c1 | 39 | -4.33
35 | COc1cc(CN2CCN(Cc3c[nH]nc3C3CCCCC3)C[C@@H]2CCO)cc(OC)c1 | -3 | 0.59
36 | Cc1cccnc1-c1noc(C[C@H]2C(=O)NCCN2C(C)C)n1 | -15 | 2.11
37 | CN1CCc2[nH]nc(C(=O)N(C)Cc3csc(-c4ccccc4)n3)c2C1 | -17 | 3.37
38 | COC(=O)N1CC(C)(NCc2cccc(C#N)c2)C1 | -2 | 0.45
39 | COc1ccc(OCC(=O)Nc2cc(S(=O)(=O)N3CCCC3)ccc2OCC(F)(F)F)cc1 | -7 | 0.83
40 | Cc1nc(-n2nc(C)c(Cc3ccccc3Cl)c2O)sc1C(=O)Nc1ccccc1 | 0 | 0.01
41 | Cc1n[nH]c(C2CN(C(C)C(=O)N(C)Cc3ccco3)CCO2)n1 (stereo not drawn) | -1 | 0.21
42 | CCN(CC)c1nc2cc(C(=O)NCc3ccc(F)cc3F)ccc2c(=O)n1-c1ccccc1 | -5 | 0.86

Row | Compound | % Inhibition [%] | Z score
43 | Cc1ccc(Br)cc1N1CC[C@@H](C(=O)NCc2ccco2)C1=O | -10 | 1.62
44 | CC(=O)N1CCC[C@H](c2nc(C3CCCCC3)no2)C1 | -14 | 1.44
45 | CCOc1ccc(S(=O)(=O)Nc2cc(OC)c3nc(NC(=O)c4ccccc4)sc3c2)cc1 | -17 | 2.58
46 | Cc1occc1CN(C)C(=O)N[C@H]1CCCS(=O)(=O)C1 | -3 | 0.47
47 | CC(O)CNc1cc(NC2CCCC2Cc2ccccn2)ncn1 (stereo not drawn) | 2 | -0.32
48 | CN(C)C(=O)c1ccc(CN2CCc3c(Cl)cccc32)[nH]1 | -13 | 1.48
49 | O=C(C#Cc1ccccc1)Nc1ccccc1-c1ccccc1 | -27 | 3.16
50 | Cc1ccc(OCCN)c(C(=O)N(C)[C@@H](C)c2cc(-c3ccccc3)[nH]n2)c1 | -8 | 1.28
51 | Cc1cnn(C2CN([C@@H](C(=O)NC3CC3)c3ccc(F)cc3)C2)c1 | -9 | 1.17
52 | Cc1nc(C2CC2)nc(N2CCN(C(=O)c3ccccc3Cl)CC2)c1Cc1c(F)cccc1Cl | 6 | -1.01
53 | COc1ccc(C(=O)N[C@@H]2CCC[C@@H]2C(=O)N2CCN(C(C)C)CC2)cn1 | -11 | 1.45
54 | CCS(=O)(=O)N1CCN(CC(=O)NC2CCCCCC2)CC1 | -11 | 1.28
55 | CC(C)c1cc(C(=O)NC2CCCC2)[nH]n1 | -8 | 1.22
56 | CC(C)n1ccc(C(=O)N2CC3(CCCCC3)C2)n1 | -10 | 1.91
57 | O=S(=O)(CC1CCCC1)NCc1cccc2c1OCO2 | -9 | 1.35
58 | CCOc1cc(C(=O)N2CCC(c3cccs3)CC2)cc(OCC)c1OCC | 1 | -0.16
59 | CC1(C)CN(C(=O)C2=CCCCO2)CC[S@+]1[O-] | -12 | 1.56
60 | Cc1ncc(S(C)(=O)=O)c(N(C)CCc2ccccn2)n1 | -9 | 1.42
61 | Cn1c(CS(=O)(=O)Cc2cccc(F)c2)cc(=O)n(C)c1=O | -8 | 1.59
62 | COC[C@@](C)(O)CNC(=O)c1cccs1 | -7 | 1.06
63 | CNC(=O)[C@@H]1C[C@H](NCc2cccc3ccccc23)CN1C1Cc2ccccc2C1 | 15 | -2.03

Row | Compound | % Inhibition [%] | Z score
64 | CC[C@H](C)NS(=O)(=O)c1cccc(Br)c1 | -16 | 1.85
65 | COc1ccc(F)c(C(=O)N2CCCC[C@@H]2CCN2CCCC2)c1F | 2 | -0.33
66 | COc1ccc(S(=O)(=O)N2CCOCC2)cc1C(=O)N1CC(=O)Nc2cc(C)cnc21 | 2 | -0.37
67 | Cc1ccoc1C(=O)NCC(=O)c1cccc2ccccc12 | -21 | 1.77
68 | Cc1cnn(-c2cccc(N3CCO[C@H](c4ccc(F)cc4)C3)n2)c1 | -9 | 1.83
69 | O=C(c1cnccn1)N1CCC[C@@]2(C1)C(=O)Nc1ccccc12 | 1 | -0.2
70 | CCC(C)NC(=O)NC(Cc1ccccc1)C(N)=O (stereo not drawn) | -4 | 0.55
71 | CCOc1ccc(NC(=O)c2nc(N3CCCC3)c3c(C)c(C)n(-c4ccccc4)c3n2)cc1 | -1 | 0.12
72 | Cc1cc(COc2cccc3c2CCC3=O)on1 | -13 | 1.83
73 | Cc1cc(NC(=O)Cc2ccccc2C)sn1 | -5 | 1.08
74 | CS(=O)(=O)c1ccc(Br)c(S(=O)(=O)NC[C@@H](c2ccco2)N2CCCC2)c1 | -6 | 1.16
75 | CC(CCS(C)(=O)=O)NC1CCc2c(Cl)cc(Cl)cc21 (stereo not drawn) | 4 | -0.55
76 | CC(C)c1ccc(N2C(=O)c3cc(-c4cccs4)nn3C[C@@]2(C)C(=O)NCc2ccc(F)cc2)cc1 | -11 | 1.82
77 | COc1ccccc1CN1C(=O)CN(C2CCCC2)C(=O)[C@@H]1c1ccc(F)cc1 | -1 | 0.18
78 | C[C@H](NC(=O)N(C)Cc1nccs1)C(F)(F)F | -5 | 0.82
79 | CC(C)n1cncc1CN(C)CCc1ccccn1 | -2 | 0.22
80 | CC1CC(C)CN(Cc2nnc(-c3cccs3)o2)C1 (stereo not drawn) | 8 | -1.03
81 | CCN(CC(=O)N1CCCCCC1)C(=O)c1ccn(C2CCCCC2)n1 | 5 | -0.59
82 | Cc1oc(-c2ccc(C(=O)N3CCC(C(N)=O)CC3)cc2)nc1CN1CCN(c2ccccc2)CC1 | -6 | 0.78
83 | CN(CC(=O)NCCn1ccnc1-c1cnccn1)S(C)(=O)=O | 3 | -0.42
84 | Cc1nc(C2CCNCC2)cc(N2CCCCCC2)n1 | 4 | -0.69
